Measured values: the supplement of paper PMC10037445
Over roughly 2,900 compounds, “IRF Lucia reporter activity, fold change vs agonist alone” has its median near 0.9; the highest 2% begin near 2.8. Some of the results follow.

Assays:
RAW-Dual [1] = experiment: IRF Lucia reporter activity, fold change vs agonist alone; cytotoxicity flag (confluency mask): not cytotoxic; higher = enhanced IRF activity
How it was run: (§1)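 After 50 nL of library stock was delivered by pin tool to RAW-Dual macrophages (50,000 cells/well, DMEM, 384-well plates), a PRR agonist was added 1 h later and the plates were kept at 37 °C, 5% CO2. Twenty hours later, IRF was read from supernatant by QuantiLuc luminescence and NF-κB by QuantiBlue absorbance at 620 nm. Reporter activity is stated as fold change over agonist-alone wells. Wells with IncuCyte confluency under 70% of agonist controls in both mask sets were counted as cytotoxic.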

RAW-Dual [2] = experiment: IRF Lucia reporter activity, fold change vs agonist alone; higher = enhanced IRF activity; details: agonist: MPLA (TLR4) […]
How it was run: as §1

RAW-Dual [3] = experiment: IRF Lucia reporter activity, fold change vs agonist alone; cytotoxicity flag (confluency mask): cytotoxic (confluency <70% of control); higher = enhanced IRF activity
How it was run: as §1

[4] = agonist: 3'3'-cGAMP (STING) 10 ug/mL
[5] = library stock concentration (final ~1000-fold dilution): 2 mM, cytotoxicity flag (confluency mask): not cytotoxic
[6] = library stock concentration (final ~1000-fold dilution): 10 mM, cytotoxicity flag (confluency mask): cytotoxic (confluency <70% of control)
[7] = library stock concentration (final ~1000-fold dilution): 10 mM, cytotoxicity flag (confluency mask): not cytotoxic

COc1cccc(CCc2ccccc2OCC(CN(C)C)OC(=O)CCC(=O)O)c1.Cl (configuration not stated) (library stock concentration (final ~1000-fold dilution): 10 mM)
IRF Lucia reporter activity (RAW-Dual [1]; [4]): 0.755 | IRF Lucia reporter activity (RAW-Dual [1]; agonist: LPS (TLR4) 0.1 ug/mL): 1.09

CCCCCCCCCCCCCCCCOc1nc2ccc(C)cc2c(=O)o1 (library stock concentration (final ~1000-fold dilution): 2 mM)
IRF Lucia reporter activity (RAW-Dual [1]; [4]): 0.984 | IRF Lucia reporter activity (RAW-Dual [1]; agonist: LPS (TLR4) 0.1 ug/mL): 1.02

CCCCCCCCCCCCCCCCOc1nc2ccc(C)cc2c(=O)o1
IRF Lucia reporter activity (RAW-Dual [2]; [5]): 1.26

CC(C)(Sc1ccncc1-c1ccc(C#N)c2ccccc12)C(=O)O (library stock concentration (final ~1000-fold dilution): 10 mM)
IRF Lucia reporter activity (RAW-Dual [1]; [4]): 0.856 | IRF Lucia reporter activity (RAW-Dual [1]; agonist: LPS (TLR4) 0.1 ug/mL): 0.963

Cc1noc(C)c1-c1ccc(-c2cc(C(N)=O)c(NC(N)=O)s2)c(O[C@H]2CCNC2)c1 (library stock concentration (final ~1000-fold dilution): 10 mM)
IRF Lucia reporter activity (RAW-Dual [1]; [4]): 0.958 | IRF Lucia reporter activity (RAW-Dual [1]; agonist: LPS (TLR4) 0.1 ug/mL): 0.315

CCCCCCCc1ccc(CCc2cccc(O)c2C(=O)O)cc1 (library stock concentration (final ~1000-fold dilution): 10 mM)
IRF Lucia reporter activity (RAW-Dual [3]; [4]): 1.15 | IRF Lucia reporter activity (RAW-Dual [3]; agonist: LPS (TLR4) 0.1 ug/mL): 1.85

CCCCCCCc1ccc(CCc2cccc(O)c2C(=O)O)cc1
IRF Lucia reporter activity (RAW-Dual [2]; [6]): 0.935

CC#CC1(O)CCC2C3CCC4=CC(=O)CCC4=C3C(c3ccc(N(C)C)cc3)CC21C (configuration not stated) (library stock concentration (final ~1000-fold dilution): 10 mM)
IRF Lucia reporter activity (RAW-Dual [1]; [4]): 1.29 | IRF Lucia reporter activity (RAW-Dual [1]; agonist: LPS (TLR4) 0.1 ug/mL): 0.908

CC#CC1(O)CCC2C3CCC4=CC(=O)CCC4=C3C(c3ccc(N(C)C)cc3)CC21C (configuration not stated)
IRF Lucia reporter activity (RAW-Dual [2]; [7]): 0.886

Oc1c(F)cc(-c2cnccc2-c2ccc(N3CCOCC3)cc2)cc1F (library stock concentration (final ~1000-fold dilution): 10 mM)
IRF Lucia reporter activity (RAW-Dual [1]; [4]): 0.603 | IRF Lucia reporter activity (RAW-Dual [1]; agonist: LPS (TLR4) 0.1 ug/mL): 0.991

CCCCCCCCCCCCc1ccc(S(=O)(=O)Nc2nncs2)cc1
IRF Lucia reporter activity (RAW-Dual [2]; [6]): 0.649

CCCCCCCCCCCCc1ccc(S(=O)(=O)Nc2nncs2)cc1 (library stock concentration (final ~1000-fold dilution): 10 mM)
IRF Lucia reporter activity (RAW-Dual [3]; [4]): 0.835 | IRF Lucia reporter activity (RAW-Dual [3]; agonist: LPS (TLR4) 0.1 ug/mL): 0.588

CN1CCN(c2c(F)cc3c(=O)c(C(=O)O)cn4c3c2OCN4C)CC1 (library stock concentration (final ~1000-fold dilution): 2 mM)
IRF Lucia reporter activity (RAW-Dual [1]; [4]): 0.896 | IRF Lucia reporter activity (RAW-Dual [1]; agonist: LPS (TLR4) 0.1 ug/mL): 0.928

CN1CCN(c2c(F)cc3c(=O)c(C(=O)O)cn4c3c2OCN4C)CC1
IRF Lucia reporter activity (RAW-Dual [2]; [5]): 1.25

COc1ccccc1OCC(O)CN1CCN(CC(=O)Nc2c(C)cccc2C)CC1.Cl.Cl (configuration not stated) (library stock concentration (final ~1000-fold dilution): 10 mM)
IRF Lucia reporter activity (RAW-Dual [1]; [4]): 1.02 | IRF Lucia reporter activity (RAW-Dual [1]; agonist: LPS (TLR4) 0.1 ug/mL): 1.16

COc1ccccc1OCC(O)CN1CCN(CC(=O)Nc2c(C)cccc2C)CC1.Cl.Cl (configuration not stated)
IRF Lucia reporter activity (RAW-Dual [2]; [7]): 1.02

COc1cc(C(C)=O)ccc1O (library stock concentration (final ~1000-fold dilution): 10 mM)
IRF Lucia reporter activity (RAW-Dual [1]; [4]): 0.969 | IRF Lucia reporter activity (RAW-Dual [1]; agonist: LPS (TLR4) 0.1 ug/mL): 0.825

COc1cc(C(C)=O)ccc1O
IRF Lucia reporter activity (RAW-Dual [2]; [7]): 0.839

CC/C(=C(/c1ccc(/C=C/C(=O)O)cc1)c1ccc2[nH]ncc2c1)c1ccc(F)cc1Cl (library stock concentration (final ~1000-fold dilution): 10 mM)
IRF Lucia reporter activity (RAW-Dual [1]; [4]): 0.843 | IRF Lucia reporter activity (RAW-Dual [1]; agonist: LPS (TLR4) 0.1 ug/mL): 1.14

CCOC(=O)C(N)Cc1ccc(-c2cc(OC(c3ccc(Cl)cc3-n3ccc(C)n3)C(F)(F)F)nc(N)n2)cc1.O=C(O)CNC(=O)c1ccccc1 (configuration not stated)
IRF Lucia reporter activity (RAW-Dual [2]; [7]): 1.11

CCOC(=O)C(N)Cc1ccc(-c2cc(OC(c3ccc(Cl)cc3-n3ccc(C)n3)C(F)(F)F)nc(N)n2)cc1.O=C(O)CNC(=O)c1ccccc1 (configuration not stated) (library stock concentration (final ~1000-fold dilution): 10 mM)
IRF Lucia reporter activity (RAW-Dual [1]; [4]): 1.09 | IRF Lucia reporter activity (RAW-Dual [1]; agonist: LPS (TLR4) 0.1 ug/mL): 0.731

C[N+](C)(C)CCOC(=O)CCC(=O)OCC[N+](C)(C)C (library stock concentration (final ~1000-fold dilution): 10 mM water)
IRF Lucia reporter activity (RAW-Dual [1]; [4]): 1.16 | IRF Lucia reporter activity (RAW-Dual [1]; agonist: LPS (TLR4) 0.1 ug/mL): 0.902

C[N+](C)(C)CCOC(=O)CCC(=O)OCC[N+](C)(C)C
IRF Lucia reporter activity (RAW-Dual [2]; library stock concentration (final ~1000-fold dilution): 10 mM water, cytotoxicity flag (confluency mask): not cytotoxic): 1.35

CC(Cc1ccc(O)c(O)c1)(NN)C(=O)O (configuration not stated)
IRF Lucia reporter activity (RAW-Dual [2]; [7]): 0.984

CC(Cc1ccc(O)c(O)c1)(NN)C(=O)O (configuration not stated) (library stock concentration (final ~1000-fold dilution): 10 mM)
IRF Lucia reporter activity (RAW-Dual [1]; [4]): 0.921 | IRF Lucia reporter activity (RAW-Dual [1]; agonist: LPS (TLR4) 0.1 ug/mL): 1.15

Cc1cc(O)c(-c2ccc(C(C)CN)cc2)c2c1[nH]c(=O)c1sccc12.Cl (configuration not stated) (library stock concentration (final ~1000-fold dilution): 10 mM)
IRF Lucia reporter activity (RAW-Dual [3]; [4]): 0.0139 | IRF Lucia reporter activity (RAW-Dual [3]; agonist: LPS (TLR4) 0.1 ug/mL): 0.0203
